Experimental data published in the supplement of paper PMC4604168 (melanoma cell lines).
Some of the results follow. Single values are uncertain, as repeats are few or missing.

Key:
Experiment in all cases: cell count relative to DMSO control; melanoma cells; higher = more viable cells
Conditions in all cases: library dose: standard library concentration; 72 h
[1] = tested on: A101D
[2] = tested on: A2058
[3] = tested on: A375
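Also: cells treated in 1,536-well plates, then fixed and DAPI-stained, with nuclei counted from automated high-throughput microscope images.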

Q: How did the cell count [1] turn out when O=C(/C=C/c1cccnc1)NCCCCC1CCN(C(=O)c2ccccc2)CC1 + Cn1sc(=O)n(Cc2ccccc2)c1=O [TDZD-8] (first compound 0.05 µM, partner dose 2 µM) was run?
A: Its cell count is 101%.

Q: What about the cell count [2] of the same molecule?
A: Its cell count is 90.6%.

Q: And the cell count [3]?
A: The cell count was 97%.

Q: Which results are given for CC1(C)CCC(c2ccc(Cl)cc2)=C(CN2CCN(c3ccc(C(=O)NS(=O)(=O)c4ccc(N[C@H](CCN5CCOCC5)CSc5ccccc5)c(S(=O)(=O)C(F)(F)F)c4)cc3)CC2)C1 + CO[C@@H]1[C@H](N(C)C(=O)c2ccccc2)C[C@H]2O[C@]1(C)n1c3ccccc3c3c4c(c5c6ccccc6n2c5c31)C(=O)NC4 [Midostaurin] (first compound 2 µM, partner dose 0.4 µM)?
A: cell count [1]: 28.5%; cell count [2]: 42%; cell count [3]: 40.4%

Q: Cc1ccc(Nc2nccc(N(C)c3ccc4c(C)n(C)nc4c3)n2)cc1S(N)(=O)=O [Pazopanib] + Clc1ccc(Nc2nnc(Cc3ccncc3)c3ccccc23)cc1 [vatalanib] (first compound 2 µM, partner dose 10 µM) was tested. Which cell count [1] did it give?
A: Its cell count is 72.4%.

Q: And the cell count [2]?
A: The cell count was 86.9%.

Q: And the cell count [3]?
A: The cell count was 90.2%.

Q: How did the cell count [1] turn out when Cc1ccc(Nc2nccc(N(C)c3ccc4c(C)n(C)nc4c3)n2)cc1S(N)(=O)=O [Pazopanib] + CN(c1ncccc1CNc1nc(Nc2ccc3c(c2)CC(=O)N3)ncc1C(F)(F)F)S(C)(=O)=O [PF562271] (first compound 2 µM, partner dose 0.4 µM) was run?
A: The cell count was 67.1%.

Q: And the cell count [2]?
A: The cell count was 109%.

Q: What about the cell count [3] of the same molecule?
A: Its cell count is 62.9%.

Q: How did the cell count [1] turn out when CC1(C)CCC(c2ccc(Cl)cc2)=C(CN2CCN(c3ccc(C(=O)NS(=O)(=O)c4ccc(N[C@H](CCN5CCOCC5)CSc5ccccc5)c(S(=O)(=O)C(F)(F)F)c4)cc3)CC2)C1 + Cn1c(Nc2ccc(C(F)(F)F)cc2)nc2cc(Oc3ccnc(-c4ncc(C(F)(F)F)[nH]4)c3)ccc21 [CHIR265] (first compound 2 µM, partner dose 0.4 µM) was run?
A: Its cell count is 12.9%.

Q: What about the cell count [2] of the same molecule?
A: Its cell count is 29.9%.

Q: What about the cell count [3] of the same molecule?
A: The cell count was 41.6%.

Q: Which results are given for O=C(/C=C/c1cccnc1)NCCCCC1CCN(C(=O)c2ccccc2)CC1 + CNC(=O)c1cc(Oc2ccc(NC(=O)Nc3ccc(Cl)c(C(F)(F)F)c3)cc2)ccn1 [sorafenib] (first compound 0.05 µM, partner dose 2 µM)?
A: cell count [1]: 102%; cell count [2]: 118%; cell count [3]: 111%

Q: How did the cell count [1] turn out when Cc1ccc(Nc2nccc(N(C)c3ccc4c(C)n(C)nc4c3)n2)cc1S(N)(=O)=O [Pazopanib] + C=CCn1c(=O)c2cnc(Nc3ccc(N4CCN(C)CC4)cc3)nc2n1-c1cccc(C(C)(C)O)n1 [MK1775] (first compound 2 µM, partner dose 0.1 µM) was run?
A: Its cell count is 80.3%.

Q: What about the cell count [2] of the same molecule?
A: The cell count was 107%.

Q: What about the cell count [3] of the same molecule?
A: Its cell count is 57%.

Q: For Cc1ccc(Nc2nccc(N(C)c3ccc4c(C)n(C)nc4c3)n2)cc1S(N)(=O)=O [Pazopanib] + COc1ccc(Cl)c(Nc2nc3ccccc3nc2NS(=O)(=O)c2cccc(NC(=O)C(C)(C)N)c2)c1 [XL147] (first compound 2 µM, partner dose 4 µM), which cell count [1] is on record?
A: Its cell count is 74.7%.

Q: What about the cell count [2] of the same molecule?
A: The cell count was 72.3%.

Q: What about the cell count [3] of the same molecule?
A: The cell count was 76.5%.

Q: Which cell count [1] does the source give for Cc1ccc(Nc2nccc(N(C)c3ccc4c(C)n(C)nc4c3)n2)cc1S(N)(=O)=O [Pazopanib] + C[C@@H](N)c1ccc(C(=O)Nc2ccnc3[nH]ccc23)cc1 [RKI983] (first compound 2 µM, partner dose 2 µM) here?
A: Its cell count is 79%.

Q: And the cell count [2]?
A: Its cell count is 54.8%.

Q: And the cell count [3]?
A: The cell count was 109%.

Q: Which cell count [1] does the source give for CC1(C)CCC(c2ccc(Cl)cc2)=C(CN2CCN(c3ccc(C(=O)NS(=O)(=O)c4ccc(N[C@H](CCN5CCOCC5)CSc5ccccc5)c(S(=O)(=O)C(F)(F)F)c4)cc3)CC2)C1 + Cc1nc(Nc2ncc(C(=O)Nc3c(C)cccc3Cl)s2)cc(N2CCN(CCO)CC2)n1 [dasatanib] (first compound 2 µM, partner dose 0.02 µM) here?
A: Its cell count is 41.6%.

Q: And the cell count [2]?
A: The cell count was 66.5%.

Q: And the cell count [3]?
A: Its cell count is 52.1%.

Q: What does the source list for O=C(/C=C/c1cccnc1)NCCCCC1CCN(C(=O)c2ccccc2)CC1 + OCc1c[nH]c2ccccc12 [Indole-3-carbinol] (first compound 0.05 µM, partner dose 4 µM)?
A: cell count [1]: 83.3%; cell count [2]: 123%; cell count [3]: 90.8%

Q: With CC1(C)CCC(c2ccc(Cl)cc2)=C(CN2CCN(c3ccc(C(=O)NS(=O)(=O)c4ccc(N[C@H](CCN5CCOCC5)CSc5ccccc5)c(S(=O)(=O)C(F)(F)F)c4)cc3)CC2)C1 + CN(c1ncccc1CNc1nc(Nc2ccc3c(c2)CC(=O)N3)ncc1C(F)(F)F)S(C)(=O)=O [PF562271] (first compound 2 µM, partner dose 0.4 µM) as the molecule, how does the cell count [1] read?
A: Its cell count is 55.4%.

Q: And the cell count [2]?
A: Its cell count is 76.6%.

Q: And the cell count [3]?
A: Its cell count is 85.6%.

Q: For O=C(/C=C/c1cccnc1)NCCCCC1CCN(C(=O)c2ccccc2)CC1 + O=C(O)c1ccc2c(c1)nc(Nc1cccc(Cl)c1)c1ccncc12 [CX4945] (first compound 0.05 µM, partner dose 2 µM), which cell count [1] is on record?
A: Its cell count is 84.2%.

Q: And the cell count [2]?
A: The cell count was 99.8%.

Q: What about the cell count [3] of the same molecule?
A: Its cell count is 61.4%.

Q: For O=C(/C=C/c1cccnc1)NCCCCC1CCN(C(=O)c2ccccc2)CC1 + COc1ccc(Cl)c(Nc2nc3ccccc3nc2NS(=O)(=O)c2cccc(NC(=O)C(C)(C)N)c2)c1 [XL147] (first compound 0.05 µM, partner dose 4 µM), which cell count [1] is on record?
A: Its cell count is 96.8%.

Q: And the cell count [2]?
A: Its cell count is 101%.

Q: What about the cell count [3] of the same molecule?
A: Its cell count is 113%.

Q: Which cell count [1] does the source give for Cc1ccc(Nc2nccc(N(C)c3ccc4c(C)n(C)nc4c3)n2)cc1S(N)(=O)=O [Pazopanib] + Nc1ccn([C@@H]2O[C@H](CO)[C@@H](O)C2(F)F)c(=O)n1 [gemcitabine] (first compound 2 µM, partner dose 0.002 µM) here?
A: Its cell count is 89.7%.

Q: What about the cell count [2] of the same molecule?
A: The cell count was 63.2%.

Q: And the cell count [3]?
A: Its cell count is 74.3%.

Q: With CC1(C)CCC(c2ccc(Cl)cc2)=C(CN2CCN(c3ccc(C(=O)NS(=O)(=O)c4ccc(N[C@H](CCN5CCOCC5)CSc5ccccc5)c(S(=O)(=O)C(F)(F)F)c4)cc3)CC2)C1 + C=CCNC1=C2C[C@@H](C)C[C@H](OC)[C@H](O)[C@@H](C)/C=C(\C)[C@H](OC(N)=O)[C@@H](OC)/C=C\C=C(/C)C(=O)NC(=CC1=O)C2=O [Tanespimycin] (first compound 2 µM, partner dose 0.01 µM) as the molecule, how does the cell count [1] read?
A: Its cell count is 27%.

Q: What about the cell count [2] of the same molecule?
A: The cell count was 86.4%.

Q: What about the cell count [3] of the same molecule?
A: The cell count was 58.6%.

Q: With O=C(/C=C/c1cccnc1)NCCCCC1CCN(C(=O)c2ccccc2)CC1 + CC(C)C[C@H](NC(=O)[C@H](Cc1ccccc1)NC(=O)c1cnccn1)B(O)O [Bortezomib] (first compound 0.05 µM, partner dose 0.005 µM) as the molecule, how does the cell count [1] read?
A: Its cell count is 15.7%.

Q: And the cell count [2]?
A: Its cell count is 15.8%.

Q: And the cell count [3]?
A: Its cell count is 71.6%.

Q: How did the cell count [1] turn out when O=C(/C=C/c1cccnc1)NCCCCC1CCN(C(=O)c2ccccc2)CC1 + Cc1ccc(Nc2nccc(N(C)c3ccc4c(C)n(C)nc4c3)n2)cc1S(N)(=O)=O [Pazopanib] (first compound 0.05 µM, partner dose 2 µM) was run?
A: The cell count was 69.9%.

Q: And the cell count [2]?
A: Its cell count is 116%.

Q: And the cell count [3]?
A: Its cell count is 106%.

Q: Which cell count [1] does the source give for O=C(/C=C/c1cccnc1)NCCCCC1CCN(C(=O)c2ccccc2)CC1 + NC(=O)Nc1cc(-c2cccc(F)c2)sc1C(=O)N[C@H]1CCCNC1 [AZD7762] (first compound 0.05 µM, partner dose 0.1 µM) here?
A: Its cell count is 61.2%.

Q: And the cell count [2]?
A: The cell count was 101%.

Q: What about the cell count [3] of the same molecule?
A: Its cell count is 48%.

Q: Which cell count [1] does the source give for CC1(C)CCC(c2ccc(Cl)cc2)=C(CN2CCN(c3ccc(C(=O)NS(=O)(=O)c4ccc(N[C@H](CCN5CCOCC5)CSc5ccccc5)c(S(=O)(=O)C(F)(F)F)c4)cc3)CC2)C1 + CN(C)S(=O)(=O)c1ccc2c(c1)/C(=C/c1cc3c([nH]1)CCCC3)C(=O)N2 [SU6656] (first compound 2 µM, partner dose 2 µM) here?
A: The cell count was 24.5%.

Q: What about the cell count [2] of the same molecule?
A: Its cell count is 84%.

Q: What about the cell count [3] of the same molecule?
A: The cell count was 62.3%.

Q: With CC1(C)CCC(c2ccc(Cl)cc2)=C(CN2CCN(c3ccc(C(=O)NS(=O)(=O)c4ccc(N[C@H](CCN5CCOCC5)CSc5ccccc5)c(S(=O)(=O)C(F)(F)F)c4)cc3)CC2)C1 + CCCCCCCCc1ccc(CCC(N)(CO)CO)cc1 [fingolimod] (first compound 2 µM, partner dose 10 µM) as the molecule, how does the cell count [1] read?
A: Its cell count is 5.8%.

Q: What about the cell count [2] of the same molecule?
A: Its cell count is 5.75%.

Q: What about the cell count [3] of the same molecule?
A: The cell count was 27.9%.

Q: For Cc1ccc(Nc2nccc(N(C)c3ccc4c(C)n(C)nc4c3)n2)cc1S(N)(=O)=O [Pazopanib] + CN(NC(=O)CC(=O)NN(C)C(=S)c1ccccc1)C(=S)c1ccccc1 [STA4783] (first compound 2 µM, partner dose 0.03 µM), which cell count [1] is on record?
A: Its cell count is 65.3%.

Q: What about the cell count [2] of the same molecule?
A: The cell count was 12%.

Q: What about the cell count [3] of the same molecule?
A: Its cell count is 111%.

Q: Which cell count [1] does the source give for O=C(/C=C/c1cccnc1)NCCCCC1CCN(C(=O)c2ccccc2)CC1 + CCCCCCCCc1ccc(CCC(N)(CO)CO)cc1 [fingolimod] (first compound 0.05 µM, partner dose 10 µM) here?
A: The cell count was 3.46%.

Q: And the cell count [2]?
A: The cell count was 10.7%.

Q: And the cell count [3]?
A: The cell count was 32.5%.

Q: With O=C(/C=C/c1cccnc1)NCCCCC1CCN(C(=O)c2ccccc2)CC1 + C#Cc1cccc(Nc2ncnc3cc(OCCOC)c(OCCOC)cc23)c1 [erlotinib] (first compound 0.05 µM, partner dose 4 µM) as the molecule, how does the cell count [1] read?
A: The cell count was 64.8%.

Q: What about the cell count [2] of the same molecule?
A: The cell count was 90%.

Q: What about the cell count [3] of the same molecule?
A: The cell count was 115%.

Q: CC1(C)CCC(c2ccc(Cl)cc2)=C(CN2CCN(c3ccc(C(=O)NS(=O)(=O)c4ccc(N[C@H](CCN5CCOCC5)CSc5ccccc5)c(S(=O)(=O)C(F)(F)F)c4)cc3)CC2)C1 + CN1CCN(c2ccc3nc(-c4c(N)c5c(F)cccc5[nH]c4=O)[nH]c3c2)CC1 [Dovitinib] (first compound 2 µM, partner dose 0.5 µM) was tested. Which cell count [1] did it give?
A: The cell count was 21%.

Q: What about the cell count [2] of the same molecule?
A: Its cell count is 23.9%.

Q: What about the cell count [3] of the same molecule?
A: Its cell count is 27%.

Q: Which results are given for CC1(C)CCC(c2ccc(Cl)cc2)=C(CN2CCN(c3ccc(C(=O)NS(=O)(=O)c4ccc(N[C@H](CCN5CCOCC5)CSc5ccccc5)c(S(=O)(=O)C(F)(F)F)c4)cc3)CC2)C1 + Nc1ccn([C@@H]2O[C@H](CO)[C@@H](O)C2(F)F)c(=O)n1 [gemcitabine] (first compound 2 µM, partner dose 0.002 µM)?
A: cell count [1]: 26.3%; cell count [2]: 39.4%; cell count [3]: 42.4%
